Holding throughout (test): Primary Screen for Target Class Profiling of Small Molecule Inhibitors of Methyltransferases
Assay [1] addresses Glycine N-methyltransferase (Homo sapiens) (UniProt Q14749). The following applies: purified enzyme, MTase-Glo SAH luminescence; measured here: GNMT inhibition; at 40 µM; stronger effect = lower value. A digest of the protocol:
(§1)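 Each enzyme was reacted with SAM and its substrate, with compounds tested once at 40 uM; SAH formed was read by MTase-Glo luminescence.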

Assay [2] deals with Histamine N-methyltransferase (Homo sapiens) (UniProt P50135). Particulars: purified enzyme, MTase-Glo SAH luminescence; measured here: HNMT inhibition; at 40 µM; stronger effect = lower value. The essentials:
as §1

Assay [3] deals with Nicotinamide N-methyltransferase (Homo sapiens) (UniProt P40261). The following applies: purified enzyme, MTase-Glo SAH luminescence; measured here: NNMT inhibition; at 40 µM; stronger effect = lower value. The essentials: as §1
The target in assay [4] is Phenylethanolamine N-methyltransferase (Homo sapiens) (UniProt P11086). The following applies: purified enzyme, MTase-Glo SAH luminescence; measured here: PNMT inhibition; at 40 µM; stronger effect = lower value. The essentials: as §1
Assay [5] has as its target Guanidinoacetate N-methyltransferase (Homo sapiens) (UniProt Q14353). Particulars: purified enzyme, MTase-Glo SAH luminescence; measured here: GAMT inhibition; at 40 µM; stronger effect = lower value. A digest of the protocol:
as §1

Each structure is given as a SMILES string. Some of the results follow. Shown are side measurements of this screen, not its main read-out; they come without a call.
% is set by controls: 0 for no effect and ±100 for the full control effect.

`CCOC(=O)CCNc1cc(N2CCc3ccccc3CC2)nc(-c2ccccn2)n1`: the activity change, negative = inhibition in assay [1] is -4.33%; in assay [2], 12.4%; in assay [3], -5.06%; in assay [4] it was 24.8%.

Turning to `CN1Cc2ncnc(N3CCOCC3)c2CN(c2cccnc2)C1=O`, the activity change, negative = inhibition in assay [1] was -5.15%; in assay [5], -5.85%; in assay [2] it was -0.936%; in assay [3], -15.6%; in assay [4] it was -11.1%.

Turning to `Cc1ccc2c(c1)c1c3n2CCN(CC(O)CN2CCCCC2)C3CCC1` (centres undefined), the activity change, negative = inhibition was 0.276% in assay [1]; 0% in assay [5]; -15.1% in assay [2]; 6.35% in assay [3]; -1.08% in assay [4].

For `Cc1cc(=O)oc2c(C=O)c(O)ccc12`, the activity change, negative = inhibition is -54.5% in assay [1]; 0.53% in assay [5]; 5.05% in assay [2]; -21.9% in assay [3]; -16.8% in assay [4].

Turning to `O=C(c1ccccc1-c1ccccc1)N1CCCn2cncc2C1`, the activity change, negative = inhibition in assay [1] is -1.6%; in assay [5], 1.58%; in assay [2], 0.065%; in assay [3], -4.53%; in assay [4], 1.19%.

As to `CCCS(=O)(=O)NCC1CN(CC2CC2)CC12CCCCC2` (centres undefined), the activity change, negative = inhibition in assay [1] is -6.16%; in assay [5], -7.14%; in assay [2], -5.98%; in assay [3] it was -11.9%; in assay [4], -8.18%.

On to `CC1(C(=O)NC2CCCCCC2)Cn2c(cc3ccccc32)C(=O)N1Cc1ccco1` (centres undefined), for which the activity change, negative = inhibition in assay [1] was 0.481%; in assay [5], 0%; in assay [2] it was 1.66%; in assay [3], -4.3%; in assay [4] it was -2.67%.

With `c1ccc(CC2=NOC3(CCN(Cc4ccccc4)C3)C2)cc1` (centres undefined), the activity change, negative = inhibition was -5.09% in assay [1]; -7.25% in assay [5]; -1.65% in assay [2]; -16.9% in assay [3]; -9.45% in assay [4].

As for `COc1ccc2c(c1)OCC(CNC(=O)c1ccc(-c3nnn(C)n3)cc1)C2` (centres undefined), the activity change, negative = inhibition in assay [1] was 1.12%; in assay [5], 0.806%; in assay [2], 1.39%; in assay [3], 3%; in assay [4], -10.8%.

As to `O=C(CCc1nnc2n(Cc3ccc(Cl)cc3)c(=O)c3ccccc3n12)N1CCN(c2ccccn2)CC1`, the activity change, negative = inhibition in assay [1] was -21.5%; in assay [5] it was 0%; in assay [2] it was -5.16%; in assay [3], -6.7%; in assay [4] it was -0.664%.

Take `O=C(c1nnc(CN2CCN(c3ccccn3)CC2)n1-c1cccnc1)N1CCC[C@@H]1c1cccc(F)c1`: the activity change, negative = inhibition in assay [1] was -3.25%; in assay [5], -1.41%; in assay [2], -2.54%; in assay [3] it was -4.62%; in assay [4], 0.494%.

Take `O=C(NCCc1cccs1)C1CCN(c2cc(C(F)(F)F)ncn2)CC1`: the activity change, negative = inhibition was -0.862% in assay [1]; -1.92% in assay [5]; 0.361% in assay [2]; -6.61% in assay [3]; -8.11% in assay [4].

For the compound `CN(C)CCOC(c1ccccc1)c1ccccc1`, the activity change, negative = inhibition in assay [1] was -2.42%; in assay [5], 7.7%; in assay [2], -12.3%; in assay [3], -3.59%; in assay [4], 10.6%.

In the case of `Cc1ccc(CNC(=O)Cn2c(=O)oc3cc(S(=O)(=O)N4CC(C)CC(C)C4)ccc32)cc1` (centres undefined), the activity change, negative = inhibition is -3.62% in assay [1]; 0% in assay [5]; -3.48% in assay [2]; -5.34% in assay [3]; -8.24% in assay [4].

`CCC(C)C(=O)N1CCC2(CCc3nn(Cc4ccccc4)c(=O)n3CC2)CC1` (centres undefined): the activity change, negative = inhibition in assay [1] is -3.75%; in assay [5] it was 1.44%; in assay [2] it was 1.56%; in assay [3], -0.739%; in assay [4], 3.52%.

Consider `OC(CN1CCC(Cc2ccc(F)cc2)CC1)c1ccc(Cl)cc1` (centres undefined), for which the activity change, negative = inhibition in assay [1] was -3.45%; in assay [5] it was 6.87%; in assay [2], -0.561%; in assay [3], -6.18%; in assay [4], 2.31%.

For `COc1ccc(CCNC(=O)CN(C)S(=O)(=O)c2ccc3[nH]c4c(c3c2)CCCC4)cc1OC`, the activity change, negative = inhibition in assay [1] is -20.6%; in assay [5] it was 2.25%; in assay [2], -4.67%; in assay [3], -19.5%; in assay [4], 0.689%.

Take `CC(C)NC[C@@H](O)c1ccc(O)c(O)c1`: the activity change, negative = inhibition is -35.5% in assay [1]; 1.09% in assay [5]; 0.482% in assay [2]; -13.4% in assay [3]; -18.3% in assay [4].

With `O=C1CCCN1CCCNc1nc2c(S(=O)(=O)c3ccc(Br)cc3)nnn2c2ccccc12`, the activity change, negative = inhibition in assay [1] was -4.45%; in assay [5], 0.226%; in assay [2], -1.12%; in assay [3] it was 1.34%; in assay [4], -2.88%.

In the case of `C[C@@H]1O[C@@H](O[C@H]2[C@@H]3C=CO[C@@H](O[C@@H]4O[C@H](CO)[C@@H](O)[C@H](O)[C@H]4O)[C@@H]3[C@@]3(CO)O[C@@H]23)[C@H](OC(=O)/C=C/c2ccc(O)c(O)c2)[C@H](O)[C@H]1O`, the activity change, negative = inhibition is 0.68% in assay [1]; -7.24% in assay [5]; -0.704% in assay [2]; -17.8% in assay [3]; 0.693% in assay [4].

For the compound `Cc1nn(CCC#N)c(C)c1[C@@H]1C=C[C@@H](NCc2ccc(C(C)C)cc2)C1`, the activity change, negative = inhibition in assay [1] was -4.63%; in assay [5], -3.94%; in assay [2] it was -17.5%; in assay [3] it was -14.9%; in assay [4], -9.35%.

As for `CC(=O)Nc1c2n(c3ccc(F)cc13)CC(C)(C(=O)NC1CCCC1)N(Cc1cccnc1)C2=O` (centres undefined), the activity change, negative = inhibition in assay [1] is 4%; in assay [5], 0%; in assay [2] it was 6.25%; in assay [3], 1.85%; in assay [4], 0.65%.

On to `CC(C)CNC(=O)c1ccc2c(=O)n(Cc3ccccc3)c3nn(Cc4ccccc4)c(=O)n3c2c1`, for which the activity change, negative = inhibition is 0.869% in assay [1]; 0% in assay [5]; 3.07% in assay [2]; 2.08% in assay [3]; 3.21% in assay [4].

On to `CN(C(=O)Cc1c[nH]c2ccccc12)C1CCc2nn(C)c(=O)n2CC1` (centres undefined), for which the activity change, negative = inhibition is -0.437% in assay [1]; 0.458% in assay [5]; 1.56% in assay [2]; -0.404% in assay [3]; 2.32% in assay [4].

With `C=CCn1c(=O)c2ccc(C(=O)NC(C)C)cc2n2c(=O)n(CC(=O)Nc3ccccc3CC)nc12`, the activity change, negative = inhibition was 4.64% in assay [1]; 5.03% in assay [5]; 7.31% in assay [2]; -2.09% in assay [3]; -0.183% in assay [4].

Regarding `COc1ccc(Nc2cnc3ccc(-c4ccccc4)nn23)cc1`, the activity change, negative = inhibition was -10.9% in assay [1]; -2.71% in assay [5]; -2.98% in assay [2]; -4.61% in assay [3]; -3.58% in assay [4].

On to `COc1ccc(CNC(=O)c2ccc3c(=O)nc4c(-c5cccc(F)c5)n[nH]n4c3c2)cc1`, for which the activity change, negative = inhibition is 0.965% in assay [1]; 0% in assay [5]; 2.32% in assay [2]; 3.49% in assay [3]; -3.57% in assay [4].

As to `COc1ccc(CNc2nc3c(-c4cccc(Br)c4)nnn3c3ccccc23)cc1`, the activity change, negative = inhibition in assay [1] is -5.63%; in assay [5], -4.77%; in assay [2] it was -6.33%; in assay [3], -19.2%; in assay [4], -9.52%.

For `CN1C[C@@H](NC(=O)NC2CCCCC2)C[C@H]1c1nc(Cc2ccccc2)no1`, the activity change, negative = inhibition is 0.53% in assay [1]; 0.703% in assay [5]; 2.56% in assay [2]; -0.196% in assay [3]; -0.557% in assay [4].

The values above are taken from PubChem BioAssay AID1745853 (National Center for Advancing Translational Sciences (NCATS), 2022).
